Reference: PubChem BioAssay AID651820 (National Center for Advancing Translational Sciences (NCATS), 2012)
Out of some 340,000 compounds screened, about 12,000 (3.5%) were called active. This list was built around the results that the source calls inconclusive (neither active nor inactive); the mix of calls is not that of the screen. The call rests on the fitted dose curve; in most records, active means well fitted inhibition curve with a large enough effect; inconclusive means small, poorly fitted or top-dose-only effect, or another doubt; inactive means no such curve, though single readings can be large or run the other way. No potency is given beside an inconclusive call; the fits are too rough.

Assay: qHTS Assay for Inhibitors of Hepatitis C Virus (HCV)
Conditions: Huh7.5.1 HCVcc-Cre (HCVcc is cell-culture hepatitis C virus) infection, luciferase reporter, 44 h; series mostly up to 41.8 µM
Procedure, shortened: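 Compounds are dispensed onto cells plated 4 h earlier at 1,000 per well, with HCVcc-Cre virus (about 0.5 moi) added next. Following 44 h of culture, luminescent signal is measured for 15 sec after 15 min with substrate at room temperature.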
Potency means the concentration at half of the fitted maximal effect; tags describe the fitted curve by direction and shape.

| Structure (SMILES) | Potency |
| --- | --- |
| c1cn2cc(CSC3CCCCC3)nc2s1 | inconclusive [inhibitor, single point] |
| CCc1cc2c(Nc3ccc(O)cc3)nc(C)nc2s1 | inconclusive [inhibitor, single point] |
| CS(=O)(=O)Nc1ccc(C2=NN(C(=O)c3ccco3)C(c3cccc(F)c3)C2)cc1 (centres undefined) | inconclusive [inhibitor, single point] |
| COc1ccc(C[C@H]2CN3C(=NC[C@@H]3Cc3ccc(O)cc3)N2C[C@H](C)NC(=O)c2ccc(C)c(Br)c2)cc1 | inconclusive [inhibitor, single point] |
| CC(COc1cccc2ccccc12)CN1CCN(C)CC1 (centres undefined) | active: 5.01 µM |
| Cc1ccc(S(=O)(=O)N(CC(=O)NCc2ccc(F)cc2)C(=O)N2CCN(C)CC2)cc1 | inactive |
| Cc1cc(-n2c(C)cc(C(=O)COc3ccc([N+](=O)[O-])cc3)c2C)no1 | inconclusive [inhibitor, partial curve] |
| C/C=C/C=C/C(=O)[C@@H]1[C@@H]([C@]2(C)OC(=O)C(C)=C2O)[C@H]2/C(=C(O)/C=C/C=C/C)C(=O)[C@]1(C)C(=O)C2(C)O (some centres undefined) | inactive |
| COc1ccc(-c2csc(NC(=O)CSc3n[nH]c(N)n3)n2)cc1 | inconclusive [inhibitor, single point] |
| Cc1cc(C)c(C)c(S(=O)(=O)N2CCC(C(=O)NCC(c3ccccc3)N(C)C)CC2)c1C (centres undefined) | inconclusive [inhibitor, partial curve] |
| O=C(CSc1nnc(-c2ccccc2)c(-c2ccccc2)n1)Nc1ncc(Cl)cc1Cl | inactive |
| Cc1ccccc1N(CC(=O)NCCc1ccccc1)C(=O)c1ccc(N2CCCC2)nc1 | inconclusive [inhibitor, partial curve] |
| O=C(c1ccc(F)cc1)C1CCN(C(=S)Nc2ccc(F)cc2)CC1 | inconclusive [inhibitor, single point] |
| COc1ccc(/C=C/C(=O)NC(=S)NNC(=O)[C@H]2C[C@@H]2c2ccccc2)cc1OC | inconclusive [inhibitor, single point] |
| CCNc1oc(-c2cccc3ccccc23)nc1C#N | inconclusive [inhibitor, single point] |
| CCN(CC)C(=N)/C(C#N)=N/Nc1ccc(C)cc1 | inactive |
| C=CCSc1nc2c(cc1C#N)CCC2 | inconclusive [inhibitor, partial curve] |
| CC(=O)Nc1ccc2cc3ccc(NC(C)=O)cc3nc2c1 | inactive |
| CCSC1=C(C#N)C(c2ccccc2OC)CC(=O)N1 (centres undefined) | inactive |
| CCCn1c2ccc(C)cc2c2nnc(SCCN3CCCCC3)nc21 | active: 8.91 µM |
| Cc1nc2c(ccc3nc(NC(=O)c4ccc5c(c4)OCCO5)sc32)s1 | inconclusive [inhibitor, partial curve] |
| COc1ccccc1CCc1nnc(CCC(=O)NC(C)Cc2cccs2)o1 (centres undefined) | inactive |

| Structure (SMILES) | Potency |
| --- | --- |
| CN(C(=O)c1cccc(NC(=O)Cc2ccc(NC(=O)C3CCCN(S(=O)(=O)c4cccc([N+](=O)[O-])c4)C3)cc2)c1)C1CCC1 (centres undefined) | inconclusive [inhibitor, full curve] |
| CCOC(=O)c1ccc(NC(=O)COc2ccccc2CNC2CCCC2)cc1 | inactive |
| Cc1cc(/C=N/NC(=O)C(=O)N2CCCC2)c(C)n1-c1cccc(Br)c1 | inconclusive [inhibitor, partial curve, poor fit] |
| COC(=O)c1c(C)nc2ccccc2c1-c1ccccc1 | inconclusive [inhibitor, single point] |
| N#Cc1cc(-c2ccccc2)cnc1Sc1ccccc1 | inconclusive [inhibitor, single point] |
| CC(C)N(C(=O)CSc1nc(Cc2ccccc2)nc2ccccc12)C(C)C | inconclusive [inhibitor, single point] |
| Cc1ccc(C(=O)COC(=O)c2cccc(NC(=O)c3ccc([N+](=O)[O-])cc3[N+](=O)[O-])c2)cc1 | active: 11.2 µM |
| CCCCN(C(=O)c1ccc(Cl)cc1)C1CC2CCC(C1)N2C (centres undefined) | active: 11.2 µM |
| Cc1noc(C)c1C(=O)NCCCc1ccccc1 | inconclusive [inhibitor, full curve, poor fit] |
| Cc1nc(N(C)C)c2sc(=S)n(Cc3ccccc3)c2n1 | inconclusive [inhibitor, single point] |
| COc1cc(OC)c2ccc(=O)oc2c1 | inconclusive [inhibitor, single point] |
| O=C(/C=C/c1ccccc1)c1ccoc1 | inactive |
| O=S(=O)(Nc1ccc(N2CCCCC2)cc1)c1cccc2cccnc12 | inconclusive [inhibitor, single point] |
| CN(C(=O)c1cccc(NC(=O)Cc2cccc([N+](=O)[O-])c2)c1)C1CCCC1 | inconclusive [inhibitor, single point] |
| COc1ccc(OC)c(NC(=O)C2CCN(Cc3cnn(-c4ccccc4)c3-n3cccc3)CC2)c1 | inconclusive [inhibitor, full curve] |
| CCN(CC)S(=O)(=O)c1ccc(C(=O)Nc2nnc(-c3ccco3)o2)cc1 | inconclusive [inhibitor, single point] |
| FC(F)Oc1ccccc1/C=N/Nc1nc2ccccc2o1 | inactive |
| COc1ccc(C(=O)Cn2c(C)nc([N+](=O)[O-])c2Br)cc1 | inconclusive [inhibitor, single point] |
| Nn1c(SC/C=C/c2ccccc2)nnc1-c1cccnc1 | inactive |
| COc1ccc(CCC(=O)OCC(=O)N(C)c2c(N)n(Cc3ccccc3)c(=O)[nH]c2=O)cc1 | inconclusive [inhibitor, single point] |
| Cc1cc(C(=O)CN2C(=O)NC3(CCCc4ccccc43)C2=O)c(C)n1Cc1ccccc1 (centres undefined) | inconclusive [inhibitor, single point] |
| NC(=O)CC(NC(=O)Cc1ccc(Br)cc1)c1ccc(N2CCN(c3ccccc3)CC2)c([N+](=O)[O-])c1 (centres undefined) | inconclusive [inhibitor, single point] |
